Common to all, as to test: Viability of human cancer cell lines after 72 h of drug (GDSC screen)
Compound in assay [1]: C/C(=C\c1csc(C)n1)[C@@H]1C[C@@H]2O[C@]2(C)CCC[C@H](C)[C@H](O)[C@@H](C)C(=O)C(C)(C)[C@@H](O)CC(=O)O1 [Epothilone B]
The note with it: top dose 0.032 µM; top dose inferred. Here is the method:
(§1)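 Human cancer cell lines in 384-well plates, medium with 10% serum, drug for 72 h over a 256-fold dose range (nine 2-fold or five 4-fold steps up to the top dose). Adherent lines were fixed and stained with the nucleic acid dye Syto60, suspension lines read with resazurin; signal relative to control wells, capped at 0 and 100%. One two-parameter sigmoid per drug and line, fitted in a mixed model over all curves with the slope shared within a line.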

Compound in assay [2]: CC(C)CC(=O)Nc1n[nH]c2c1CN(C(=O)C1CCN(C)CC1)C2(C)C [PHA-793887]
The conditions noted are these: top dose 10.24 µM. Here is the method:
as §1

Compound in assay [3]: CCCS(=O)(=O)Nc1ccc(F)c(C(=O)c2c[nH]c3ncc(Cl)cc23)c1F [PLX4720]
The note with it: top dose 10 µM. Here is the method: as §1

Compound in assay [4]: C[C@@H](N)c1ccc(C(=O)Nc2ccnc3[nH]ccc23)cc1 [Y-39983]
The note with it: top dose 20 µM; top dose inferred. Here is the method: as §1

Compound in assay [5]: NC(=O)Nc1sc(-c2ccc(F)cc2)cc1C(N)=O [TPCA-1]
The note with it: top dose 20 µM. Here is the method:
as §1

[6] abbreviates: screen: GDSC drug entry 1371, top dose inferred.

By IC50 is meant the dose at which the fit gives 50% viability; where the fit passes the top or lowest dose, that dose stands as a limit. The AUC spans the tested range (256-fold, ending at the top dose) of the same fit; it is 1 without any effect and falls as sensitivity rises. For some assays here: Any top dose called inferred was calculated from the reported fits. For some assays here: Where an entry number is given, a second screen of the drug exists; the two often differ. Some results are limits rather than exact numbers.

The record followed here is the supplement of paper PMC4967469.

As usually defined, the IC50 is the point on the concentration scale where inhibition reaches its midpoint.

For BPH-1 (prostate, adherent), the AUC in assay [1] was 0.319; in assay [2], 0.161; in assay [3] (screen: GDSC drug entry 1036), 0.978; in assay [3] (setting [6]), 0.98; in assay [4], 0.982; in assay [5] it was 0.733. Further, the IC50 in assay [1] was 0.000587 µM; in assay [2] it was 0.0508 µM; in assay [3] (screen: GDSC drug entry 1036), above 10 µM; in assay [3] (setting [6]) it was above 10 µM; in assay [4], above 20 µM; in assay [5], 6.24 µM.

As for BT-20 (breast, adherent), the AUC in assay [1] came to 0.641; in assay [2] it was 0.892; in assay [3] (screen: GDSC drug entry 1036), 0.962; in assay [3] (setting [6]), 0.982; in assay [4] it was 0.954; in assay [5], 0.955. For the same cell line, the IC50 was 0.00542 µM in assay [1]; above 10.2 µM in assay [2]; above 10 µM in assay [3] (screen: GDSC drug entry 1036); above 10 µM in assay [3] (setting [6]); above 20 µM in assay [4]; above 20 µM in assay [5].

Take BT-483 (breast, adherent): the AUC in assay [1] came to 0.969; in assay [2] it was 0.878; in assay [3] (screen: GDSC drug entry 1036) it was 0.967; in assay [3] (setting [6]) it was 0.975; in assay [4], 0.948; in assay [5], 0.924. The IC50 is above 0.032 µM in assay [1]; above 10.2 µM in assay [2]; above 10 µM in assay [3] (screen: GDSC drug entry 1036); above 10 µM in assay [3] (setting [6]); above 20 µM in assay [4]; above 20 µM in assay [5].

BxPC-3 (pancreas, adherent): the AUC in assay [1] stood at 0.455; in assay [2], 0.794; in assay [3] (screen: GDSC drug entry 1036), 0.958; in assay [3] (setting [6]), 0.951; in assay [4], 0.941; in assay [5], 0.621. Moreover, the IC50 is 0.00148 µM in assay [1]; 5.39 µM in assay [2]; above 10 µM in assay [3] (screen: GDSC drug entry 1036); above 10 µM in assay [3] (setting [6]); above 20 µM in assay [4]; 2.81 µM in assay [5].

Consider C3A (liver, adherent), for which the AUC is 0.578 in assay [1]; 0.988 in assay [2]; 0.988 in assay [3] (screen: GDSC drug entry 1036); 0.976 in assay [3] (setting [6]); 0.988 in assay [4]; 0.988 in assay [5]. The IC50 in assay [1] is 0.0033 µM; in assay [2] it was above 10.2 µM; in assay [3] (screen: GDSC drug entry 1036) it was above 10 µM; in assay [3] (setting [6]), above 10 µM; in assay [4], above 20 µM; in assay [5] it was above 20 µM.

On to C32 (melanoma, adherent), for which the AUC in assay [1] was found to be 0.98; in assay [2] it was 0.987; in assay [3] (screen: GDSC drug entry 1036), 0.398; in assay [3] (setting [6]), 0.611; in assay [4], 0.987; in assay [5], 0.987. In addition, the IC50 in assay [1] was above 0.032 µM; in assay [2], above 10.2 µM; in assay [3] (screen: GDSC drug entry 1036), 0.322 µM; in assay [3] (setting [6]) it was 1.29 µM; in assay [4] it was above 20 µM; in assay [5] it was above 20 µM.

Regarding C-4-I (cervix, adherent), the AUC in assay [1] worked out at 0.6; in assay [2], 0.966; in assay [3] (screen: GDSC drug entry 1036), 0.986; in assay [4], 0.948; in assay [5], 0.913. The IC50 in assay [1] is 0.00386 µM; in assay [2], above 10.2 µM; in assay [3] (screen: GDSC drug entry 1036), above 10 µM; in assay [4] it was above 20 µM; in assay [5] it was above 20 µM.

Regarding C-33-A (cervix, adherent), the AUC in assay [1] amounted to 0.584; in assay [2], 0.9; in assay [3] (screen: GDSC drug entry 1036), 0.976; in assay [3] (setting [6]), 0.961; in assay [4], 0.864; in assay [5], 0.539. Further, the IC50 is 0.0034 µM in assay [1]; above 10.2 µM in assay [2]; above 10 µM in assay [3] (screen: GDSC drug entry 1036); above 10 µM in assay [3] (setting [6]); 17.5 µM in assay [4]; 1.6 µM in assay [5].

Regarding CAKI-1 (kidney, adherent), the AUC in assay [1] was found to be 0.684; in assay [2] it was 0.934; in assay [3] (setting [6]) it was 0.935; in assay [4], 0.935; in assay [5] it was 0.751. In addition, the IC50 in assay [1] is 0.00852 µM; in assay [2], above 10.2 µM; in assay [3] (setting [6]), above 10 µM; in assay [4], above 20 µM; in assay [5], 9.76 µM.

Regarding “CAL-12T (non-small cell lung carcinoma, adherent)”, the AUC in assay [1] came to 0.27; in assay [2], 0.628; in assay [3] (screen: GDSC drug entry 1036) it was 0.875; in assay [3] (setting [6]), 0.917; in assay [4], 0.934; in assay [5], 0.721. For the same cell line, the IC50 is 0.000405 µM in assay [1]; 1.51 µM in assay [2]; above 10 µM in assay [3] (screen: GDSC drug entry 1036); above 10 µM in assay [3] (setting [6]); above 20 µM in assay [4]; 5.75 µM in assay [5].

CAL-27 (head and neck, adherent): the AUC in assay [1] worked out at 0.345; in assay [2], 0.787; in assay [3] (screen: GDSC drug entry 1036), 0.98; in assay [3] (setting [6]), 0.932; in assay [4], 0.971; in assay [5], 0.879. In addition, the IC50 in assay [1] is 0.000736 µM; in assay [2], 4.53 µM; in assay [3] (screen: GDSC drug entry 1036) it was above 10 µM; in assay [3] (setting [6]), above 10 µM; in assay [4], above 20 µM; in assay [5], above 20 µM.

Turning to CAL-29 (bladder, adherent), the AUC in assay [1] stood at 0.729; in assay [2], 0.941; in assay [3] (screen: GDSC drug entry 1036) it was 0.975; in assay [3] (setting [6]), 0.938; in assay [4], 0.974; in assay [5] it was 0.947. Also, the IC50 was 0.00952 µM in assay [1]; above 10.2 µM in assay [2]; above 10 µM in assay [3] (screen: GDSC drug entry 1036); above 10 µM in assay [3] (setting [6]); above 20 µM in assay [4]; above 20 µM in assay [5].
